This note sets out measurements from ChEMBL document CHEMBL4888484, “Replenishing the malaria drug discovery pipeline: Screening and hit evaluation of the MMV Hit Generation Library 1 (HGL1) against asexual blood stage Plasmodium falciparum ,using a nano luciferase reporter read-out” (2022).

One may read the % Inhibition as the relative decrease from the control value, in per cent.

The structures appear in SMILES notation. The whole screen tested about 150,000 compounds, of which about 540 (0.36%) showed an effect of 50% or more. This is one part of the list.

This experiment relates to Plasmodium falciparum. Description: Primary screen in NF54 nanoGlo assay, in single point, at 2uM, 72h; a lower Z score goes with more inhibition. The note with it: timepoint 72 hour. Format: functional, Erythrocyte.
Consider `Cc1nnccc1C(=O)N1CCNC(=O)CC12CCC2`, for which the “% Inhibition” value was -7% and the Z score amounted to 0.95.
As for `CCn1nccc1CN(CCO)C(=O)[C@H]1CCCCC1(F)F`, the “% Inhibition” value is reported as 2% and the Z score is -0.29.
Consider `Cc1ccc(Cl)cc1NC(=O)CC(=O)N1CCC2(CCC(=O)N(C)CC2)CC1`, for which the “% Inhibition” value is recorded as 4% and the Z score is -0.41.
Turning to `O=C1NC(c2ccc(OC(F)F)c(Cl)c2)N2CCOCC12` (stereo not drawn), the “% Inhibition” value turned out to be 3% and the Z score is on record as -0.37.
Taken in the same sequence, the figures for `CCc1nc(NCc2nnc(C(C)C)n2C)c2ccsc2n1` were -10% and 1.82.
As to `C[C@@H](CNc1nc(-c2ccccc2)nc2nc(-c3ccc(Cl)cc3)oc12)N1CCOCC1`, the “% Inhibition” value is listed as -17% and the Z score was 2.25.
For `Cc1c[nH]c(CN(C)C(=O)c2ccc(C#N)nc2)n1`, the “% Inhibition” value is -6% and the Z score was determined as 0.8.
Turning to `CC(C)c1ccc(N2C(=O)[C@H](CC(=O)NCCNc3ncccn3)N=C2O)cc1`, the “% Inhibition” value was determined as 5% and the Z score was -0.6.
For the molecule `Cc1nc2c(c(=O)[nH]1)CN(C(=O)CCS(=O)(=O)c1ccccc1)C2`, the “% Inhibition” value is 0% and the Z score is given as 0.09.
With `C[C@H]1CCCCN1CCNC(=O)c1cnc2ccc(F)cc2c1`, the “% Inhibition” value is given as -7% and the Z score turned out to be 0.69.
For `Cc1cccc(-c2ocnc2C(=O)N2CCC[C@H](c3nc(C)ncc3CO)C2)c1`, the “% Inhibition” value is -4% and the Z score came out at 0.51.
Taken in the same sequence, the figures for `O=C1CCC2(CCN(Cc3cccs3)CC2)N1Cc1ccc(F)cc1` were 11% and -1.41.
Taken in the same sequence, the figures for `CS(=O)(=O)NCCN1Cc2ccccc2C1` were -4% and 0.54.
On to `O=C(c1ccccc1)N1CCN(S(=O)(=O)c2cc(Cl)sc2Cl)CC1`, for which the “% Inhibition” value was -4% and the Z score came to 0.69.
Taken in the same sequence, the figures for `Nc1c2c(-c3ccccc3Cl)nc(NCCN3CCCCC3)nc2nn1-c1ccc(F)cc1` were -6% and 0.59.
On to `Cn1cc(C(=O)Nc2ccccc2NCCc2ccccn2)cn1`, for which the “% Inhibition” value is -7% and the Z score was 0.75.
Regarding `O=C(c1ccc2nsnc2c1)N1CCN(c2cc3c(nn2)CCCC3)CC1`, the “% Inhibition” value was -4% and the Z score is given as 0.61.
Take `CN(C(=O)[C@@H]1CCCc2ccccc21)c1nccs1`: the “% Inhibition” value is listed as -10% and the Z score is 1.6.
On to `C[C@@H]1CN(C(=O)c2n[nH]c3ccc(Cl)cc23)CCN(C2CC2)C1`, for which the “% Inhibition” value stood at 5% and the Z score was -0.8.
With `COCCN1CCN2C(=O)[C@H](C)N(S(=O)(=O)c3ccccc3F)C[C@H]2C1=O`, the “% Inhibition” value is 6% and the Z score was -1.
For the molecule `COc1ccc(-c2ccc3c(c2)C(=O)N2CC[C@H](NC(=O)N4CCOCC4)[C@H]2C(=O)N3)cc1`, the “% Inhibition” value was 33% and the Z score was -3.77.
In the case of `Cc1nn(C)c2nc(-c3ccncc3)nc(N(C)C[C@H]3CCCCO3)c12`, the “% Inhibition” value was -5% and the Z score was 0.58.
In the same order, the values of `COc1ccc(N2CCN(C(=O)C[C@H]3C(=O)NCCN3S(=O)(=O)c3ccc(Cl)cc3)CC2)cc1` are 10% and -1.3.
For `O=C(NS(=O)(=O)N1CCCc2ccccc21)c1ccoc1`, the “% Inhibition” value is -9% and the Z score turned out to be 0.83.
Turning to `COc1ccc(OC)c(CNC(=O)c2ccc(-c3ccnc(N4CCCC4)n3)cc2)c1`, the “% Inhibition” value came to 5% and the Z score is reported as -0.57.
As for `Cc1ncc(CNC(=O)NCc2ccc(Br)cc2)s1`, the “% Inhibition” value is given as -10% and the Z score was determined as 1.62.
As to `Cc1cc(C(=O)N2CCCc3ccccc32)ccc1N(C)S(C)(=O)=O`, the “% Inhibition” value is on record as -4% and the Z score was 0.52.
With `Cc1ccc(NC(=O)c2ccc(C)nc2C2CCN(S(=O)(=O)c3ccccc3)CC2)cc1`, the “% Inhibition” value is given as -5% and the Z score was 0.96.
Take `COc1ccc(/C=C/CN2CC[C@](C)(O)[C@@H](O)C2)cc1`: the “% Inhibition” value is -5% and the Z score is recorded as 0.98.
As to `Cc1nc(N2CCn3c(nc(C)c3C)C2)c2cnn(C)c2n1`, the “% Inhibition” value is listed as -7% and the Z score was determined as 1.11.
For the molecule `CC[C@H](C)C(=O)N1CCC(Cc2ccc(-c3ccccc3)cc2)CC1`, the “% Inhibition” value is listed as -3% and the Z score stood at 0.39.
`NC(=O)[C@H]1C[C@@H](n2nnnc2N2CCCC3(CCCCC3)CC2)C1`: the “% Inhibition” value amounted to 0% and the Z score is reported as -0.09.
As for `O=C(CCc1cc2n(n1)CCCNC2)NCc1csc2c1CCCC2`, the “% Inhibition” value is recorded as -1% and the Z score is recorded as 0.18.
Turning to `CCN(CCO)C(=O)C[C@]1(c2ccccc2)CC(=O)N(Cc2cccnc2)C1=O`, the “% Inhibition” value is given as -5% and the Z score is on record as 0.96.
Turning to `Nc1ncc(-c2c(-c3ccccc3)ncn2C[C@@H]2C[C@@H]3C=C[C@@H]2C32CC2)cn1`, the “% Inhibition” value came to 7% and the Z score is reported as -0.95.
For `CN(C)C(=O)N1CCC(CNC(=O)c2ccno2)CC1`, the “% Inhibition” value came out at 11% and the Z score was -1.29.
In the same order, the values of `CC1(C)OC(C(=O)NC2CCCCC2)C(C(=O)NC2CCCCC2)O1` (stereo not drawn) are 10% and -1.33.
Take `Cn1ncc(Br)c1CC(=O)NC1CN(c2ccc(C(F)(F)F)cc2)C1`: the “% Inhibition” value is given as -2% and the Z score is 0.32.
With `CC(C)[C@H](NCc1cnn(C)c1C(F)(F)F)c1nnc2ccccn12`, the “% Inhibition” value was -9% and the Z score was 1.12.
Taken in the same sequence, the figures for `CC(C)N1CCC(NC(c2ccccc2)C2CC2)C1=O` (stereo not drawn) were 4% and -0.6.
`COc1ccc(OC)c2c1cc(C(=O)NC[C@H]1CC[C@H](C(=O)O)CC1)n2C`: the “% Inhibition” value was 2% and the Z score is -0.24.
Turning to `O=C(Cc1cnccn1)N1CC[C@@]2(CCCN(CC3CCC3)C2=O)C1`, the “% Inhibition” value is -4% and the Z score worked out at 0.41.
As for `CC(C)(C)C[C@H]1CN(C(=O)OC(C)(C)C)C[C@@H]1C(=O)O`, the “% Inhibition” value worked out at 6% and the Z score is on record as -0.75.
For `Cc1cc(C)c(Br)c(C(=O)N[C@H]2CCN(C(N)=O)C2)c1`, the “% Inhibition” value is given as -3% and the Z score is on record as 0.27.
As to `CCc1ccnc(CNc2ncnc(CC)c2F)c1`, the “% Inhibition” value worked out at 0% and the Z score was -0.03.
As for `Cc1ncc(C(=O)N(C)c2cnn(C)c2)c(C2CC2)n1`, the “% Inhibition” value is given as -2% and the Z score amounted to 0.33.
As to `CCc1nc(C)ncc1C(=O)NCc1ccc(N2CCCCC2)nc1`, the “% Inhibition” value is reported as -2% and the Z score stood at 0.26.
Consider `CC1(CNC(=O)N[C@@H](c2ccccc2)[C@H](O)c2ccccc2)COC1`, for which the “% Inhibition” value came to 11% and the Z score was -1.87.
On to `NC(=O)[C@@H]1COCCN1CCc1cccnc1`, for which the “% Inhibition” value is on record as -6% and the Z score is given as 1.08.
Regarding `COc1cccc(CNS(=O)(=O)c2ccc(-c3ccc(=O)[nH]n3)o2)c1`, the “% Inhibition” value is -17% and the Z score stood at 1.76.
As for `CCOC(=O)[C@H]1CCCN(C(=O)c2ccc(Cl)c(N3CCCC3=O)c2)C1`, the “% Inhibition” value is on record as -5% and the Z score is listed as 0.69.
For `Cc1nc(N)ncc1C(=O)N1CCC[C@H](Cn2ccnc2)C1`, the “% Inhibition” value is recorded as -7% and the Z score is 0.92.
In the same order, the values of `c1ccc(C(c2ccccc2)n2nnnc2[C@@H](c2ccc3c(c2)OCO3)N2CCCCC2)cc1` are -41% and 4.86.
Taken in the same sequence, the figures for `Cc1cc(F)ccc1S(=O)(=O)N1CCC2(CC1)CNC(=O)C2` were -12% and 1.45.
With `O=C(COc1ccc2c(c1)[C@H](c1ccccc1)N(Cc1ccccc1)CC2)NC1CC1`, the “% Inhibition” value came out at 14% and the Z score was -1.75.
For `O=c1c2c([nH]n1CCO)CN(c1ccc(-c3ccccc3)nn1)CC2`, the “% Inhibition” value was 0% and the Z score turned out to be 0.04.
Take `COCCCNc1cc(C#N)ccc1S(=O)(=O)N(C)CCOC`: the “% Inhibition” value is reported as -3% and the Z score was 0.61.
Turning to `Cn1cc([C@H]2CN(Cc3ccc(Cl)c(F)c3)C[C@H]2CC(=O)O)nn1`, the “% Inhibition” value is on record as 0% and the Z score turned out to be 0.
Regarding `CC(C)(C)OC(=O)N1CCC(CC(=O)NC[C@@H](CO)Cc2ccccc2F)CC1`, the “% Inhibition” value is -13% and the Z score is on record as 1.72.
As for `O=S(=O)(c1ccc(Br)cc1Cl)N(CCO)CCCO`, the “% Inhibition” value is recorded as -16% and the Z score stood at 1.78.
For `COc1ccccc1-c1nnc2c3cc(C)ccc3nc(NCc3ccccc3)n12`, the “% Inhibition” value is -13% and the Z score is listed as 1.92.
`CC(C(=O)NCc1cn(C(C)C)c(=O)[nH]c1=O)=C1CCCC1`: the “% Inhibition” value is given as -8% and the Z score is listed as 1.04.
In the same order, the values of `O=C(c1cn2cccnc2n1)N1CC[C@@]2(CCCN(CCC3CCCCC3)C2)C1` are -5% and 0.94.
For `O=C(c1nnc(-c2cc(Cl)ccc2F)o1)N1CCCC1`, the “% Inhibition” value is -10% and the Z score amounted to 1.72.
In the case of `COc1cc(C)c2[nH]c3c(c(=O)c2c1)CN(CC(=O)Nc1ccc(C)c(F)c1)CC3`, the “% Inhibition” value stood at 34% and the Z score is given as -0.74.
As for `Cn1nnnc1Cc1ccc(Br)cc1`, the “% Inhibition” value is -7% and the Z score was found to be 1.21.
`CS(=O)(=O)CCN1CCC[C@H]1c1ccc2c(c1)OCCCO2`: the “% Inhibition” value was -9% and the Z score is 0.9.
Turning to `Cc1cccc(NC(=O)N2CCC3(CC2)c2nccn2CCN3C)c1C`, the “% Inhibition” value is -9% and the Z score is recorded as 1.15.
`CC[C@@H](NC(C)=O)c1nc(-c2cccnn2)no1`: the “% Inhibition” value is listed as -14% and the Z score turned out to be 2.65.
Taken in the same sequence, the figures for `Cc1cc(C(=O)N2CCC[C@H]2c2ccsc2)c(C)s1` were -8% and 0.8.
As for `Cc1cc(C)c(CNS(=O)(=O)CCc2ccccn2)c(C)c1`, the “% Inhibition” value is on record as -9% and the Z score came to 0.87.
In the case of `Cc1ccc(Cl)cc1NC(=O)COc1ccc(N2CC(C(=O)NCC3CCCO3)CC2=O)cc1` (stereo not drawn), the “% Inhibition” value is -13% and the Z score was 1.37.
For `Cc1nn(C)c(C)c1CC(=O)N1CCc2ccccc21`, the “% Inhibition” value is given as -5% and the Z score worked out at 0.46.
Consider `COc1ccc(-c2nccn2CC[C@H]2CCOC2)cc1C(=O)O`, for which the “% Inhibition” value is recorded as -18% and the Z score was found to be 1.6.
`C#CCCCCNC(=O)Nc1cccc(F)c1`: the “% Inhibition” value was 16% and the Z score is listed as -1.88.
Turning to `CCN(CC)S(=O)(=O)NCc1ncc(C)c(O)c1C`, the “% Inhibition” value was -4% and the Z score amounted to 0.73.
For `Cc1ccc(CCN2CCC[C@@H]2C(=O)O)cc1`, the “% Inhibition” value is listed as 3% and the Z score is -0.5.
Consider `COc1cccc(CN(Cc2cn(C(C)C)nn2)C2CCC(O)CC2)c1` (stereo not drawn), for which the “% Inhibition” value was -20% and the Z score is reported as 2.11.
In the same order, the values of `O=C(Nc1cccs1)N1Cc2cccnc2C1` are -5% and 0.98.
Consider `Cc1ccc([C@H]2CN(CC(=O)Nc3ccc(C)cn3)C[C@@H]2N(C)C)cc1`, for which the “% Inhibition” value stood at 11% and the Z score is -1.05.
For `O=C(Nc1cn[nH]c1)N(CCC(F)(F)F)C1CCCC1`, the “% Inhibition” value is reported as -5% and the Z score stood at 0.72.
`CCCCn1nc(C(=O)N2CCC3(CC2)NC(=O)NC3=O)ccc1=O`: the “% Inhibition” value was -14% and the Z score came to 1.26.
For `Cc1ncsc1CNc1nnc(CC(C)(C)C)o1`, the “% Inhibition” value was 37% and the Z score is -5.03.
As to `CCc1ccc(NC(=O)c2nnc(CN(CC)C[C@H]3CCCO3)s2)cc1`, the “% Inhibition” value is given as -11% and the Z score was determined as 1.5.
